Laboratory results reported in the supplement of paper PMC4967469.
A lower IC50 marks a more sensitive line; a limit (>, <) means that the fit lies beyond the doses tested. AUC is the area under the same curve over the 256-fold range up to the top dose, as a fraction; values near 1 show little effect. For some of these results: An inferred top dose was derived from the fitted curves, not read from the paper. For some of these results: An entry number marks a drug with two screens in the source, which often give different values.

Legend:
Experiment in all cases: Viability of human cancer cell lines after 72 h of drug (GDSC screen)
Docetaxel = compound: CC(=O)O[C@@]12CO[C@@H]1C[C@H](O)[C@@]1(C)C(=O)[C@H](O)C3=C(C)[C@@H](OC(=O)[C@H](O)[C@@H](NC(=O)OC(C)(C)C)c4ccccc4)C[C@@](O)([C@@H](OC(=O)c4ccccc4)[C@H]21)C3(C)C [Docetaxel]; conditions: top dose 0.0125 µM
Method: (§1)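 Human cancer cell lines in 384-well plates, medium with 10% serum, drug for 72 h over a 256-fold dose range (nine 2-fold or five 4-fold steps up to the top dose). Adherent lines were fixed and stained with the nucleic acid dye Syto60, suspension lines read with resazurin; signal relative to control wells, capped at 0 and 100%. One two-parameter sigmoid per drug and line, fitted in a mixed model over all curves with the slope shared within a line.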

JNK Inhibitor VIII = compound: CCOc1nc(NC(=O)Cc2cc(OC)ccc2OC)cc(N)c1C#N [JNK Inhibitor VIII]; conditions: top dose 10 µM; top dose inferred
Method: as §1

Belinostat = compound: O=C(/C=C/c1cccc(S(=O)(=O)Nc2ccccc2)c1)NO [Belinostat]; conditions: top dose 20 µM; top dose inferred
Method: as §1

OSI-906 = compound: C[C@]1(O)C[C@@H](c2nc(-c3ccc4ccc(-c5ccccc5)nc4c3)c3c(N)nccn32)C1 [OSI-906]; conditions: top dose 2.56 µM; top dose inferred
Method: as §1

AMG-706 = compound: CC1(C)CNc2cc(NC(=O)c3cccnc3NCc3ccncc3)ccc21 [AMG-706]; conditions: top dose 2 µM; top dose inferred
Method: as §1

Cyclopamine = compound: CC1=C2C[C@H]3[C@@H](CC=C4C[C@@H](O)CC[C@@]43C)[C@@H]2CC[C@]12O[C@@H]1C[C@H](C)CN[C@H]1[C@H]2C [Cyclopamine]; conditions: top dose 16 µM; top dose inferred
Method: as §1

FTI-277 = compound: COC(=O)[C@H](CCSC)NC(=O)c1ccc(NC[C@@H](N)CS)cc1-c1ccccc1 [FTI-277]; conditions: top dose 1.024 µM; top dose inferred
Method: as §1

JNJ-26854165 = compound: c1ccc2c(CCNc3ccc(Nc4ccncc4)cc3)c[nH]c2c1 [JNJ-26854165]; conditions: top dose 10 µM
Method: as §1

YM155 = compound: COCC[n+]1c2c(n(Cc3cnccn3)c1C)C(=O)c1ccccc1C2=O [YM155]; conditions: top dose 5.12 µM
Method: as §1

JQ1 = compound: Cc1sc2c(c1C)C(c1ccc(Cl)cc1)=N[C@@H](CC(=O)OC(C)(C)C)c1nnc(C)n1-2 [JQ1]
Method: as §1

SB-715992 = compound: Cc1ccc(C(=O)N(CCCN)[C@@H](c2nc3cc(Cl)ccc3c(=O)n2Cc2ccccc2)C(C)C)cc1 [SB-715992]; conditions: top dose 0.128 µM; top dose inferred
Method: as §1

CGP-60474 = compound: OCCCNc1cc(-c2ccnc(Nc3cccc(Cl)c3)n2)ccn1 [CGP-60474]; conditions: top dose 0.256 µM; top dose inferred
Method: as §1

NSC-207895 = compound: CN1CCN(c2ccc([N+](=O)[O-])c3no[n+]([O-])c23)CC1 [NSC-207895]; conditions: top dose 20 µM; top dose inferred
Method: as §1

[1] = top dose 1 µM, screen: GDSC drug entry 1218, top dose inferred
[2] = top dose 2.56 µM, screen: GDSC drug entry 163

Cell Line | AUC (Docetaxel) | IC50 (Docetaxel) [nM] | AUC (JNK Inhibitor VIII) | IC50 (JNK Inhibitor VIII) [nM] | AUC (Belinostat) | IC50 (Belinostat) [nM] | AUC (OSI-906) | IC50 (OSI-906) [nM] | AUC (AMG-706) | IC50 (AMG-706) [nM] | AUC (Cyclopamine) | IC50 (Cyclopamine) [nM] | AUC (FTI-277) | IC50 (FTI-277) [nM] | AUC (JNJ-26854165) | IC50 (JNJ-26854165) [nM] | AUC (YM155) | IC50 (YM155) [nM] | AUC (JQ1; [1]) | IC50 (JQ1; [1]) [nM] | AUC (JQ1; [2]) | IC50 (JQ1; [2]) [nM] | AUC (SB-715992) | IC50 (SB-715992) [nM] | AUC (CGP-60474) | IC50 (CGP-60474) [nM] | AUC (NSC-207895) | IC50 (NSC-207895) [nM]
DMS-79 (small cell lung carcinoma, suspension) | 0.98 | > 12.5 | 0.984 | > 10000 | 0.469 | 1010 | 0.987 | > 2560 | 0.987 | > 2000 | 0.961 | > 16000 | 0.986 | > 1020 | 0.892 | > 10000 | 0.068 | < 20 | 0.984 | > 1000 | 0.973 | > 2560 | 0.978 | > 128 | 0.86 | > 256 | 0.933 | > 20000
RPMI-8866 (chronic myeloid leukaemia, suspension) | 0.753 | 3.9 | 0.982 | > 10000 | 0.177 | 147 | 0.983 | > 2560 | 0.987 | > 2000 | 0.988 | > 16000 | 0.986 | > 1020 | 0.775 | 3660 | 0.021 | < 20 | 0.968 | > 1000 | 0.912 | > 2560 | 0.909 | > 128 | 0.745 | 75.9 | 0.907 | > 20000
8-MG-BA (glioma, adherent) | 0.495 | 0.758 | 0.988 | > 10000 | 0.442 | 880 | 0.957 | > 2560 | 0.985 | > 2000 | 0.83 | 9190 | 0.974 | > 1020 | 0.844 | 6500 | 0.021 | < 20 | 0.986 | > 1000 | 0.348 | 62.4 | 0.941 | > 128 | 0.708 | 59.2 | 0.977 | > 20000
no-11 (glioma, adherent) | 0.83 | 10.7 | 0.968 | > 10000 | 0.76 | 8780 | 0.938 | > 2560 | 0.965 | > 2000 | 0.896 | > 16000 | 0.941 | > 1020 | 0.951 | > 10000 | 0.039 | < 20 | 0.98 | > 1000 | 0.628 | 394 | 0.93 | > 128 | 0.586 | – | 0.947 | > 20000
CP66-MEL (melanoma, adherent) | 0.906 | > 12.5 | 0.985 | > 10000 | 0.657 | 3650 | 0.822 | 1770 | 0.967 | > 2000 | 0.984 | > 16000 | 0.981 | > 1020 | 0.972 | > 10000 | 0.273 | 65.3 | 0.984 | > 1000 | 0.851 | 2410 | 0.946 | > 128 | 0.863 | > 256 | 0.985 | > 20000
